Measured values: ChEMBL document CHEMBL4888484, “Replenishing the malaria drug discovery pipeline: Screening and hit evaluation of the MMV Hit Generation Library 1 (HGL1) against asexual blood stage Plasmodium falciparum ,using a nano luciferase reporter read-out” (2022)
In all, about 150,000 compounds went through this assay and about 540 (0.36%) showed an effect of 50% or more. Some of the results follow.

system: Plasmodium falciparum; assay: Primary screen in NF54 nanoGlo assay, in single point, at 2uM, 72h; a lower Z score goes with more inhibition; format: functional, Erythrocyte; settings: timepoint 72 hour

Structure (SMILES)	% Inhibition [%]	Z score
C[C@@H]1CN(c2ncc(F)cn2)C[C@H](C)N1CCO	-11	1.54
CC(C)(C)OCc1cc(C(=O)N2CC(=O)Nc3c(F)cccc32)no1	3	-0.5
COc1ccc(S(=O)(=O)Nc2nc(C)c(C(=O)NCc3cccs3)s2)cc1	2	-0.25
NC(=O)c1c(F)cccc1-c1cccc(-c2cc[nH]n2)c1	2	-0.31
CCc1cc(C(=O)N(CCc2ccccc2)CC2CCN(C)CC2)cc(=O)[nH]1	-1	0.2
c1coc(C(CNC2CC3CCC2O3)N2CCCC2)c1 (stereo not given)	11	-1.41
Cc1ccc(-c2ncccc2NC(=O)N2CC[S@@+]([O-])C(C)(C)CC2)s1	-1	0.12
O=C(Nc1ccccc1)Nn1cnc2ccccc2c1=O	-10	1.49
O=C(Cc1cccs1)N1CCC(c2c[nH]c3ccccc23)CC1	-7	1.13
CCOC1CC(CC(=O)NCc2ccnc(C)n2)C1 (stereo not given)	7	-0.71
CC(C)c1nnc(NC(=O)c2ccc3c(c2)OCCO3)s1	8	-1.78
C[C@@H](c1ccccc1)S(=O)(=O)N(C)Cc1cccnc1C(F)(F)F	2	-0.18
O=C(NC1CC1)[C@@H]1CNCCN1C(=O)c1ccccc1Oc1ccccc1	-7	0.7
Cc1ccc(-c2ncc(C)c(N(C)C)n2)c(F)c1	1	-0.09
C[C@@H](CN1CCOCC1)Nc1ccccc1S(C)(=O)=O	-6	0.65
CC(=O)N[C@@H](Cc1c[nH]cn1)C(=O)N1CCc2c(nc(C)nc2N(C)C)C1	-10	1.29
COC[C@H](C)NC(=O)c1nc(C(F)(F)F)ccc1Br	-3	0.3
C[C@H]1CCCN(S(=O)(=O)NC2CCCCCC2)C1	-6	0.63
Cc1csc(C2(NC(=O)Nc3cn[nH]c3)CCC2)n1	5	-0.94
Cc1cccc(Cn2nc(C)cc2NC(=O)NCCc2c(C)n[nH]c2C)c1	-8	1.19
Cc1nsc2nc(-c3ncc[nH]3)c(-c3ccccc3)cc12	-3	0.53
O=C(Cn1c(-c2ccccc2)cc2ccccc21)N1CCN(c2ccccc2O)CC1	13	-1.66
CCOCC(C)(C)NC(=O)N(C)Cc1nc(C)c[nH]1	-9	1.51
Cn1nccc1C(=O)N(Cc1ccccc1)c1nc2ccccc2s1	-5	0.93
Cc1cccnc1C(=O)N1CCCC[C@@]1(C)c1noc(C2CC2)n1	-11	1.33
O=S(=O)(N1CCCCC1)N1CCCN(CCn2cc(Cl)cn2)CC1	-24	2.54
O=C(NCc1cnc2nccn2c1)c1cccnc1OCC(F)F	-15	3
CCn1c(C2CCC2)nnc1N1CCn2nc(C)nc2C1	-2	0.32

Structure (SMILES)	% Inhibition [%]	Z score
O=C(Cn1cnnn1)N1CCO[C@H](c2ccc(OC(F)F)cc2)C1	-12	1.91
CO[C@@H](C)CS(=O)(=O)Nc1ccccc1Nc1ccn(C)n1	-5	0.88
O=C(NCC1(N2CCOCC2)CCCCC1)Nc1cccc2[nH]nnc12	-10	1.77
COc1cccc(NC(=O)c2cc(C(=O)Nc3cccc(OC)c3)cc(N3C(=O)c4ccccc4C3=O)c2)c1	18	-2.84
CCn1nncc1CNC[C@@]1(C)CC1(C)C	-5	0.71
Cc1n[nH]c(C)c1NC(=O)CN[C@@H]1c2ccccc2CCC1(C)C	-15	2.73
CCCC1(CCC)NC(=O)N(CC(=O)N[C@H]2CCCc3ccccc32)C1=O	-8	1.08
O=C(NC[C@H]1CCCO1)/C(=C/c1ccc(-c2ccc(Cl)cc2)o1)NC(=O)c1ccc(Cl)cc1	4	-0.66
O=C(Cn1ccc(C(F)(F)F)n1)N1CCC(c2ccccc2)=N1	-3	0.62
O=C(CC1CCCC1)Nc1cccc(-c2cc3ccccc3[nH]2)c1	18	-2.05
O=C1COc2cc(C(=O)N3CCC[C@H]3c3ccc4c(c3)OCCCO4)ccc2N1	9	-1.2
Cc1nc2c(s1)[C@@H](NC(=O)Cn1nc(C)c3cccnc31)CCC2	-6	1.11
COC(=O)CN(Cc1cnn(C)c1)C1CCCC1	3	-0.39
O=S1(=O)N=C(NCc2cccnc2)c2ccccc21	0	-0.03
COc1cccc(-c2ccccc2NC(=O)C2CCN(C[C@@H]3CC=CCC3)CC2)c1	3	-0.61
O[C@H]1C[C@@H](c2cc(N3CCN(c4ncccn4)CC3)ncn2)C1	-18	2.35
Cc1cc(F)c(CN[C@H]2C[C@H](C(=O)O)C2)c(F)c1	1	-0.13
COCC(NC(=O)c1cc[nH]c1C)C1CCCO1 (stereo not given)	-10	1.9
N#CCCN1CCN(CC(F)(F)C(F)F)CC1	0	0.06
C=CCN1Cc2cccc(OC)c2O[C@@H](C)C1=O	-7	1.03
CN(Cc1cccnc1)[C@@H](/C=C/C(C)(C)C)C(=O)O	1	-0.11
CC(=O)N1CCN(Cc2csc(-c3ccco3)n2)CC1	0	-0.06
COC(=O)N1CCC(CCC(=O)N(C)Cc2ccccc2)CC1	-3	0.47
Cc1cc(NC(=O)C(C)S(=O)(=O)C2CCCOC2)on1 (stereo not given)	-3	0.51
COc1ccc(N[C@@H](C)c2c(F)cccc2F)cc1S(=O)(=O)N1CCOCC1	-10	1.25
Nc1ccnc(N2CCC[C@@]3(CCC(=O)N(CCO)C3)C2)n1	-8	0.97
O=S(=O)(CC1CCCCC1(F)F)N1CCCC(CCO)CC1 (stereo not given)	-13	2.48
